Test results reported in the antibiotic and cytotoxicity screens of Wong et al. (2023).
Some of the results follow.

What follows are molecules tested on S. aureus RN4220 (assay: growth inhibition call (relative growth <= 0.2)). Conditions: 50 µM.

Growth inhibition call, inactive:
Cc1ccc(S(=O)(=O)Nc2ccc3c(c2)C(=O)N([C@@H](C)CO)C[C@@H](C)[C@H](CN(C)S(=O)(=O)c2ccccc2)O3)cc1, C[C@H]1CN([C@@H](C)CO)C(=O)Cc2cc(NC(=O)CCCN(C)C)ccc2O[C@H]1CN(C)S(=O)(=O)c1ccc(F)cc1, C[C@@H]1CN([C@@H](C)CO)C(=O)c2cccc(NS(=O)(=O)c3cccs3)c2O[C@@H]1CN(C)Cc1ccc(-c2ccccc2)cc1, C[C@H](CO)N1C[C@H](C)[C@@H](CN(C)S(=O)(=O)c2ccc(F)cc2)Oc2c(NC(=O)Nc3cccc4ccccc34)cccc2C1=O, C[C@H](CO)N1C[C@H](C)[C@H](CN(C)Cc2ccc3c(c2)OCO3)Oc2c(NC(=O)Nc3cccc4ccccc34)cccc2C1=O, C[C@@H]1CN([C@H](C)CO)C(=O)c2c(c3ccccc3n2C)-c2ccccc2CO[C@@H]1CN(C)C(=O)CCC(F)(F)F, CCOC(=O)C(=O)N(C)CC(OC)OC, C[C@H](CO)N1C[C@H](C)[C@@H](CN(C)C(=O)Nc2ccc3c(c2)OCO3)Oc2ccc(NC(=O)Nc3cccc4ccccc34)cc2CC1=O, C[C@H]1CN([C@@H](C)CO)C(=O)c2cccc(NC(=O)Nc3cccc4ccccc34)c2O[C@@H]1CN(C)S(=O)(=O)c1ccc(F)cc1, CO[C@@H]1CN(C)C(=O)c2ccc(NS(=O)(=O)c3ccccc3C)cc2OC[C@@H](C)N(S(C)(=O)=O)C[C@H]1C, Cc1cc(-c2ccc(N=Nc3ccc4c(S(=O)(=O)[O-])cc(S(=O)(=O)[O-])c(N)c4c3O)c(C)c2)ccc1N=Nc1ccc2c(S(=O)(=O)[O-])cc(S(=O)(=O)[O-])c(N)c2c1O.[Na+].[Na+].[Na+].[Na+]
